In PubChem BioAssay AID1477 (National Center for Advancing Translational Sciences (NCATS), 2009):
In all, about 230,000 compounds went through this assay and fewer than 10 were called active. The shares of active, inactive and inconclusive entries below differ from those in the screen. The call rests on the fitted dose curve; in most records, active means well fitted curve in the direction sought with a large enough effect; inconclusive means small, poorly fitted or top-dose-only effect, or effect the other way, or another doubt; inactive means no such curve, though single readings can be large or run the other way. Potencies of inconclusive entries are left out as doubtful fits.

Target: Runt-related transcription factor 1 (Homo sapiens) + Core-binding factor subunit beta (Homo sapiens) (UniProt Q01196+Q13951)
Test: qHTS Assay for Compounds Blocking the Interaction Between CBF-beta and RUNX1 for the Treatment of Acute Myeloid Leukemia
Conditions: AlphaScreen CBFb-His/RUNX1-biotin binding, biochemical; series mostly up to 59.8 µM
Procedure, shortened: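 AlphaScreen proximity signal reports loss of binding between His-tagged CBF-beta and biotin-labelled RUNX1, each at 30 nM. Proteins are pre-associated for 20 minutes, compounds added for 15 minutes, then beads for 90 minutes, all at ambient temperature.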

UniProt Q01196, sequence (Q01196 whole entry, looked up): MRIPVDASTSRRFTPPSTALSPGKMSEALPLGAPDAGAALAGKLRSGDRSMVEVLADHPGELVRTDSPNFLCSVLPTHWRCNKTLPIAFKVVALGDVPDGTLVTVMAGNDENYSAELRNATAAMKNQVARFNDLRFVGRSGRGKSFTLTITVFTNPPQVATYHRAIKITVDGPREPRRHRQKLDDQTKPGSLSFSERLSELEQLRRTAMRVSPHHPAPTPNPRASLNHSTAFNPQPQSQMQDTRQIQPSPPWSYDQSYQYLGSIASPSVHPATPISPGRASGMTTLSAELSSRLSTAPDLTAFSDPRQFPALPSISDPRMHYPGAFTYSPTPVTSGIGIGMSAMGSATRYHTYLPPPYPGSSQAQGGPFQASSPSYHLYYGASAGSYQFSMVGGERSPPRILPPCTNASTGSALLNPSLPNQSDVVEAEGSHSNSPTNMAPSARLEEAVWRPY
UniProt Q01196, sequence (Q13951 whole entry, looked up): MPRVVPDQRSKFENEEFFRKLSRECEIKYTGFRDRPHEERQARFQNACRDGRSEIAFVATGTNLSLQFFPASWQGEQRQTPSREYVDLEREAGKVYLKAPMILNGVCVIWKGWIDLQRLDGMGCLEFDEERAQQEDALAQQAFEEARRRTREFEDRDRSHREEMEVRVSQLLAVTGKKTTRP

Question: For `Cc1ccc(NC(=S)NC(=O)/C=C/c2ccco2)c(O)c1`, which Potency is on record?
Answer: inconclusive [inhibitor, single point]

Question: `FC(F)(F)c1cc(-c2ccccc2)nc(N2CCOCC2)n1` was tested. Which Potency did it give?
Answer: inconclusive [activator, single point]

Question: With `O=C(CSc1ccc(-c2ccccn2)nn1)NC1CCCC1` as the molecule, how does the Potency read?
Answer: inconclusive [inhibitor, partial curve, poor fit]

Question: With `Cn1c(=Nc2ccccc2)sc2ccccc21` as the molecule, how does the Potency read?
Answer: inactive

Question: Which Potency does the source give for `Cn1c(SCC(=O)N2CCOCC2)nnc1-c1cccc(NC(=O)c2ccccc2F)c1` here?
Answer: inactive

Question: For `Cc1c(C(=O)N/N=C/c2cccs2)nc2ccccn12`, which Potency is on record?
Answer: inactive

Question: Which Potency does the source give for `CC(C)Oc1ccc(C(=O)Nc2cccc3cccnc23)cc1` here?
Answer: inconclusive [activator, partial curve]

Question: With `O=c1[nH]c(/C=C\c2cccs2)nc(O)c1[N+](=O)[O-]` as the molecule, how does the Potency read?
Answer: inconclusive [inhibitor, single point]

Question: For `N#C/C(=C\c1ccc(O)c([N+](=O)[O-])c1)c1nc2ccccc2s1`, which Potency is on record?
Answer: inconclusive [inhibitor, partial curve]

Question: How did the Potency turn out when `CCCCCCOC(=O)c1ccc(NC(=O)c2cc(OC)c(OC)c(OC)c2Br)cc1` was run?
Answer: inconclusive [activator, single point]

Question: For `CCOC(=O)C1CCCN(S(=O)(=O)c2ccc(Br)s2)C1` (stereo unspecified), which Potency is on record?
Answer: inconclusive [activator, single point]

Question: For `O=[N+]([O-])c1ccc(/C([O-])=C(/C(=S)NCc2ccco2)[n+]2ccccc2)cc1`, which Potency is on record?
Answer: inconclusive [inhibitor, full curve]

Question: `N#Cc1cc2cc3c(cc2nc1N1CCCCC1)OCCO3` was tested. Which Potency did it give?
Answer: inconclusive [activator, single point]

Question: Which Potency does the source give for `Cc1nc2cc(NCc3ccccc3O)ccc2n1Cc1ccccc1` here?
Answer: inconclusive [inhibitor, single point]

Question: For `COC(=O)CCCCC(=O)OC`, which Potency is on record?
Answer: inconclusive [inhibitor, partial curve]

Question: For `O=[N+]([O-])c1cc(/C=N/N2CCN(Cc3ccccc3)CC2)ccc1Cl`, which Potency is on record?
Answer: inconclusive [inhibitor, single point]

Question: How did the Potency turn out when `CC(C)[C@]1(NC(=O)[C@@H]2C=C3c4cccc5[nH]cc(c45)C[C@H]3N(C)C2)O[C@@]2(O)C3CCCN3C(=O)[C@H](Cc3ccccc3)N2C1=O` (stereo partly specified) was run?
Answer: inconclusive [inhibitor, partial curve]

Question: `Cc1ccccc1-n1c(O)c(/C=N/NC(=O)c2ccncc2)c(=O)[nH]c1=O` was tested. Which Potency did it give?
Answer: inconclusive [inhibitor, single point]

Question: How did the Potency turn out when `Cc1cc(S(=O)(=O)Nc2ccc3c(c2)COC3=O)ccc1F` was run?
Answer: inactive

Question: With `COc1ccc([N+](=O)[O-])cc1NC(=O)COC(=O)Cc1cc(OC)c(OC)c(OC)c1` as the molecule, how does the Potency read?
Answer: inactive

Question: `CCCCCC(=O)Nc1sc(C)c(C)c1C#N` was tested. Which Potency did it give?
Answer: inconclusive [inhibitor, single point]

Question: Which Potency does the source give for `C=CCc1cccc(OC)c1OCCOCCn1ccnc1` here?
Answer: inconclusive [inhibitor, single point]

Question: With `CCCCC(=O)NC1(C(F)(F)F)NC(=O)N(Cc2ccccc2)C1=O` (stereo unspecified) as the molecule, how does the Potency read?
Answer: inconclusive [inhibitor, full curve, poor fit]

Question: With `COc1cc(C)c(CNc2ccc(OC)c(OC)c2)cc1C` as the molecule, how does the Potency read?
Answer: inconclusive [inhibitor, single point]

Question: For `CCC(C)C(=O)Nc1nc(-c2ccc3c(c2)NC(=O)CO3)cs1` (stereo unspecified), which Potency is on record?
Answer: inactive

Question: With `CCS(=O)(=O)c1nc(S(=O)(=O)c2ccc(Cl)cc2)c(N2CCc3ccccc3C2)s1` as the molecule, how does the Potency read?
Answer: inactive

Question: Which Potency does the source give for `C/C(N)=C(/C#N)C(=O)COC(=O)c1ccc(C)c(S(=O)(=O)N2CCCCC2)c1` here?
Answer: inactive

Question: Which Potency does the source give for `COC(=O)C1=CNC=C(C(=O)OC)C1c1ccc(C(=O)OC)cc1` here?
Answer: inconclusive [activator, single point]

Question: Which Potency does the source give for `O=C(COc1ccccc1[N+](=O)[O-])N/N=C/c1ccc(OC(=O)c2ccco2)cc1` here?
Answer: inconclusive [inhibitor, single point]

Question: `OC[C@H]1O[C@@H](n2cnc3c(NC4CCCCC4)ncnc32)[C@H](O)[C@@H]1O` was tested. Which Potency did it give?
Answer: inconclusive [inhibitor, partial curve]

Question: How did the Potency turn out when `CCN1CCC2(CC1)N=C(c1ccc(F)cc1)C(=S)N2` was run?
Answer: inactive

Question: `Cc1ccc(Cl)cc1NC(=O)COC(=O)c1ccc(COc2ccc3c(C)cc(=O)oc3c2)cc1` was tested. Which Potency did it give?
Answer: inactive

Question: `Cn1c(C(C#N)C2=C(Cl)C(=O)N(c3ccccc3)C2=O)nc2ccccc21` (stereo unspecified) was tested. Which Potency did it give?
Answer: inconclusive [inhibitor, partial curve]

Question: How did the Potency turn out when `O=[N+]([O-])c1ccccc1CN1CCN(Cc2c[nH]c3ccccc23)CC1` was run?
Answer: inconclusive [activator, single point]

Question: `Cc1ccc(C)c(N2CCN(Cc3nnnn3C3CCCCC3)CC2)c1` was tested. Which Potency did it give?
Answer: inconclusive [activator, partial curve]

Question: Which Potency does the source give for `O=S(=O)(c1ccccc1)N1CCN=C1SCc1ccc(Cl)cc1` here?
Answer: inconclusive [activator, single point]

Question: With `Cc1ccccc1NC(=S)NCc1ccccc1` as the molecule, how does the Potency read?
Answer: inactive

Question: For `Cc1cc(/C=C2\C(=O)NC(=O)N(c3ccc(Cl)cc3)C2=O)c(C)n1-c1sc2c(c1C#N)CCCC2`, which Potency is on record?
Answer: inactive

Question: `CCCCCCCC/C=C\CCCCCCCC(=O)NCCc1ccc(O)c(O)c1` was tested. Which Potency did it give?
Answer: inactive

Question: How did the Potency turn out when `CN(C)c1ccc(NC(=O)Nc2csc3ccccc23)cc1` was run?
Answer: inconclusive [inhibitor, partial curve, poor fit]

Question: Which Potency does the source give for `CCOC(=O)N1CCN(S(=O)(=O)c2ccc(C(=O)Nc3nc4c(s3)CC(C)CC4)cc2)CC1` (stereo unspecified) here?
Answer: inactive

Question: How did the Potency turn out when `N#Cc1c(NC(=O)C2CC=CCC2C(=O)O)sc2c1CCCCCC2` (stereo unspecified) was run?
Answer: inactive

Question: How did the Potency turn out when `Cc1c(C(=O)Nc2ccncc2)sc2nc(-c3ccccc3)cn12` was run?
Answer: inconclusive [activator, single point]

Question: For `Oc1ccc(F)c2cccnc12`, which Potency is on record?
Answer: inactive

Question: `CCn1nc(-c2ccccc2)c2nc3ccccc3nc21` was tested. Which Potency did it give?
Answer: inconclusive [activator, full curve, poor fit]

Question: Which Potency does the source give for `CCc1nnc(NC(=O)/C=C/c2cccs2)s1` here?
Answer: inactive

Question: With `O=C1OCCN1C(=O)[C@H]1[C@H](c2ccc([N+](=O)[O-])cc2)C(c2ccc(F)cc2)=NN1c1ccc(Br)cc1` as the molecule, how does the Potency read?
Answer: inconclusive [inhibitor, single point]

Question: For `COc1ccc(C(C#N)N2CCOCC2)cc1` (stereo unspecified), which Potency is on record?
Answer: inactive

Question: How did the Potency turn out when `Fc1cccc(/C=C2\CCCC3=C2NC(=S)NC3c2cccc(F)c2)c1` (stereo unspecified) was run?
Answer: inconclusive [inhibitor, single point]

Question: `COc1cc(-c2nc(-c3ccc4c(c3)-c3ccccc3S4(=O)=O)c(-c3ccccc3)[nH]2)cc(OC)c1O` was tested. Which Potency did it give?
Answer: inconclusive [inhibitor, single point]

Question: `C[C@H](NC(=O)Cc1cc(F)cc(F)c1)C(=O)N[C@@H](C(=O)OC(C)(C)C)c1ccccc1` was tested. Which Potency did it give?
Answer: inconclusive [activator, partial curve, poor fit]

Question: With `COc1ccc2[nH]c3c(N4CCN(Cc5ccc6c(c5)OCO6)CC4)ncnc3c2c1` as the molecule, how does the Potency read?
Answer: inactive

Question: `COc1cccc(NC(=O)N2CCCC2C(=O)NC(C)C)c1` (stereo unspecified) was tested. Which Potency did it give?
Answer: inconclusive [activator, full curve, poor fit]

Question: For `C[n+]1cn(/N=C/c2ccccc2)c2ccccc21`, which Potency is on record?
Answer: inactive

Question: Which Potency does the source give for `COc1ccc(-n2c(Cc3cccn3C)nnc2SCC(=O)Nc2ccccc2F)cc1` here?
Answer: inconclusive [inhibitor, partial curve]

Question: How did the Potency turn out when `CCOc1cc(CNC2CCCC2)c(Cl)cc1OCC(=O)Nc1ccccc1` was run?
Answer: inactive

Question: With `Cc1cccc(C2=NN(c3ccccc3)[C@@H](C(=O)N3CCOC3=O)[C@@H]2c2ccc(F)cc2)c1` as the molecule, how does the Potency read?
Answer: inconclusive [activator, partial curve]

Question: `Cc1nc2ncnn2c(C)c1CCC(=O)Nc1ccc(S(=O)(=O)N2CCCCCC2)cc1` was tested. Which Potency did it give?
Answer: inactive

Question: Which Potency does the source give for `Cc1noc(C)c1-c1nc(CSc2ccc(Cl)cc2)no1` here?
Answer: inconclusive [activator, single point]

Question: With `COc1ccc(C/C(C)=N/NS(=O)(=O)c2ccc(Br)cc2)cc1` as the molecule, how does the Potency read?
Answer: inactive

Question: `CCC(C)NC(=O)c1c(N)n(CC2CCCO2)c2nc3ccccc3nc12` (stereo unspecified) was tested. Which Potency did it give?
Answer: inconclusive [activator, single point]

Question: For `O=C(/C=C/c1ccccc1)Oc1cccc(C(=S)N2CCOCC2)c1`, which Potency is on record?
Answer: inactive

Question: Which Potency does the source give for `O=C(O)CCSCCC(=O)O` here?
Answer: inconclusive [inhibitor, partial curve]

Question: How did the Potency turn out when `CCOCCCNC(=O)C(NC(=O)Cc1cccs1)c1ccccc1` (stereo unspecified) was run?
Answer: inconclusive [activator, full curve, poor fit]

Question: How did the Potency turn out when `CC1(C)Cc2ccccc2-c2nnc(SCC(=O)N3CCN(c4ccccc4)CC3)n21` was run?
Answer: inactive

Question: Which Potency does the source give for `COc1ccc2c(C#N)c3ccccn3c2c1` here?
Answer: inconclusive [activator, partial curve]

Question: With `COC(=O)C(Cc1ccccc1)NS(=O)(=O)c1ccccc1Br` (stereo unspecified) as the molecule, how does the Potency read?
Answer: inconclusive [inhibitor, single point]

Question: Which Potency does the source give for `Cc1ccc(C(=O)C2=C(O)C(=O)N(c3ncccn3)C2c2ccc(F)cc2)o1` (stereo unspecified) here?
Answer: inactive

Question: Which Potency does the source give for `NC(=O)c1cc(Br)cc2c3c([nH]c12)CCCC3` here?
Answer: inconclusive [inhibitor, single point]

Question: For `Cc1ccccc1-n1c(=O)/c(=C\c2ccco2)s/c1=C(/C#N)C(=O)Nc1ccccc1`, which Potency is on record?
Answer: inconclusive [inhibitor, partial curve]

Question: With `N#Cc1nc(COc2ccccc2F)oc1NCCCn1ccnc1` as the molecule, how does the Potency read?
Answer: inconclusive [inhibitor, partial curve]
